Results published in PMC4336329 (PLoS ONE, 2015).
The whole screen tested about 310,000 compounds, of which about 14,000 (4.5%) showed an effect of 50% or more. Effects have a minus sign here. The list shows a part of the results.

What follows are compounds tested against human ether-à-go-go-related gene (hERG) potassium channel (human, UniProt Q12809) (assay: primary screen, population patch clamp on CHO cells stably expressing hERG).
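Note: peak tail current of the secondary pulse compared with the same well before compound.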

Chain of human ether-à-go-go-related gene (hERG) potassium channel (Q12809 whole entry, looked up): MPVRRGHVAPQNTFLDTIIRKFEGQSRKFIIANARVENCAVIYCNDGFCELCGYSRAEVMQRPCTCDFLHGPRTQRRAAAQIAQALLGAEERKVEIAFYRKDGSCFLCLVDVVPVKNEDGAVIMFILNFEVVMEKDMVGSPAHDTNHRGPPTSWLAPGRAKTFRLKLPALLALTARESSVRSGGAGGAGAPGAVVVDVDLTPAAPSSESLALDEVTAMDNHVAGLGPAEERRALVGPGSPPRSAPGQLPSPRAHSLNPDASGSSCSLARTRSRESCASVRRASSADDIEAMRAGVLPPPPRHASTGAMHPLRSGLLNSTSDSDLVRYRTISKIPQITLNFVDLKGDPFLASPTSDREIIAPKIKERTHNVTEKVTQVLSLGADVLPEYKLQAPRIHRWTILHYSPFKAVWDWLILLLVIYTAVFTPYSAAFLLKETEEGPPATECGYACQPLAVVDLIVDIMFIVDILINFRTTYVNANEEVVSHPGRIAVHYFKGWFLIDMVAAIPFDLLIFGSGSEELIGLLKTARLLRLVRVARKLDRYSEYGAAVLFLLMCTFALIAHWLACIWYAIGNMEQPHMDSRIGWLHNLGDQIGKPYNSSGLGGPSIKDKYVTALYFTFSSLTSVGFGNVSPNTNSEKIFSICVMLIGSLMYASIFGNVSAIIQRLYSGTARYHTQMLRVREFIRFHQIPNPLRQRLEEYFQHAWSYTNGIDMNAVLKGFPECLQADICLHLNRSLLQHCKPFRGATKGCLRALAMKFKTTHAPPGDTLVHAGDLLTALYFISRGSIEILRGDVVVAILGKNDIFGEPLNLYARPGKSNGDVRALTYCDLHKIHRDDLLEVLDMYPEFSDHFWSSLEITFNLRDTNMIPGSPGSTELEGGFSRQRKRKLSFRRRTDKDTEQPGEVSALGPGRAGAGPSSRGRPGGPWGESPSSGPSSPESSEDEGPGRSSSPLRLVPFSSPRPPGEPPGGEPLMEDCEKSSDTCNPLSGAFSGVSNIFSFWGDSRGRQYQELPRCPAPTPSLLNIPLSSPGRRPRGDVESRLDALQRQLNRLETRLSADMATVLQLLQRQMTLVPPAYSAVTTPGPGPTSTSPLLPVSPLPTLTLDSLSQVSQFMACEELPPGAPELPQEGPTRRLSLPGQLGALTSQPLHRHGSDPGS

Compared with `CCn1c(CSCc2ccc(F)cc2)nnc1SCC(=O)NCc1ccccc1`, `O=C(Cn1nnc(-c2ccccc2F)n1)NCCc1ccccc1` is higher in “hERG current change (%, negative = inhibition) at 10uM” value: -10.1% for the first, -6.61% for the second.

Compared with `COc1ccc(CCNC(=O)C2CC3Cn4c(nc5cc6ccccc6cc54)C3N2C)cc1` (centres unmarked), `CCOc1ccc(/C=N/NC(=O)c2cc3ccccc3cc2OC)cc1` is higher in “hERG current change (%, negative = inhibition) at 10uM” value: -43.7% for the first, -14.3% for the second.

Going from `CC(C)c1ccc(C(=O)NC(=S)Nc2ccc3[nH]c(=O)[nH]c3c2)cc1` to `COc1ccc(/C=N/NC(=O)c2ccc(NC(=O)c3ccccc3Br)cc2)cc1`, the “hERG current change (%, negative = inhibition) at 10uM” value rises from -4.31% to 6.43%.

First: CCNC(=O)n1cc(-n2cncn2)c(-c2ccc(Cl)cc2)n1
Second: CCN(CC(=O)NCc1ccncc1)S(=O)(=O)c1cc(Cl)ccc1Cl
The “hERG current change (%, negative = inhibition) at 10uM” value of the first is lower: -44.9% for the first, -21.4% for the second.

Going from `O=C(Cn1cc(SCc2cccc(Cl)c2)c2ccccc21)N1CCOCC1` to `COC(=O)/C=c1/s/c(=C(/C#N)C(=O)N2CCOCC2)n(-c2ccccc2)c1=O`, the “hERG current change (%, negative = inhibition) at 10uM” value rises from -33.1% to 15.3%.

First: CCOC(=O)c1c(C)[nH]c(C(=O)COC(=O)c2oc3ccc(OC)cc3c2C)c1C
Second: CCCCc1nnc(NC(=O)c2oc3ccc(OC)cc3c2C)s1
The “hERG current change (%, negative = inhibition) at 10uM” value of the first is higher: 6.45% for the first, -6.76% for the second.

Compared with `CCN(CC)c1ccc(NC(=O)c2cnc3ccccn3c2=O)c(C)c1`, `COc1ccccc1C(=O)Nn1cnc2ccccc2c1=O` is higher in “hERG current change (%, negative = inhibition) at 10uM” value: 4.51% for the first, 20.6% for the second.

Going from `CCOc1ccc(-n2c(SC(C)C(=O)OC)nc3c(c2=O)SCC3)cc1` (centres unmarked) to `CCOC(=O)C1=C(N)N(c2ccc(C)cc2)C2=C(C(=O)CCC2)C1c1cccs1` (centres unmarked), the “hERG current change (%, negative = inhibition) at 10uM” value falls from -9.11% to -12.6%.

First: COc1cc(NC(=O)CN(C)C2CCCCC2)c(C)cc1[N+](=O)[O-]
Second: CCC(=O)Nc1nc(C)c(C(=O)NC2CCCCC2)s1
The “hERG current change (%, negative = inhibition) at 10uM” value of the first is lower: -17% for the first, 5.95% for the second.

Compared with `CCc1nc(SCC(=O)Nc2ccccc2C(=O)OC)n[nH]1`, `COc1ccc(N(CC(=O)Nc2cccc3ccccc23)S(C)(=O)=O)c(OC)c1` is lower in “hERG current change (%, negative = inhibition) at 10uM” value: 10.3% for the first, -4.5% for the second.

Going from `COc1ccc(Cc2nnc3n2N=C(c2cc4ccccc4o2)CS3)cc1OC` to `O=c1c2cc(-c3ccccc3)sc2nc2n1N=C(c1ccccc1)CS2`, the “hERG current change (%, negative = inhibition) at 10uM” value rises from -1.14% to 29.2%.

Compared with `Cc1cc(C)c(N=C2SCC(=O)N2Cc2ccco2)c(C)c1`, `COC(=O)C1=C(CN2CCN(C)CC2)NC(=O)NC1c1cc(C)ccc1C` (centres unmarked) is lower in “hERG current change (%, negative = inhibition) at 10uM” value: -14% for the first, -41% for the second.

Going from `c1ccc(-c2csc(-n3cnnn3)n2)cc1` to `Cc1cc(Cl)nc(-c2ccccc2)n1`, the “hERG current change (%, negative = inhibition) at 10uM” value rises from -8.83% to 11.5%.

First: COC(=O)c1ccc(Cn2cc(C(F)(F)F)cc([N+](=O)[O-])c2=O)cc1
Second: O=C(COC(=O)/C=C/c1ccc([N+](=O)[O-])cc1)NCc1ccc2c(c1)OCO2
The “hERG current change (%, negative = inhibition) at 10uM” value of the first is lower: 14.1% for the first, 30% for the second.

First: O=C(Nc1c(-c2ccc(F)cc2)nc2ccccn12)c1ccc(F)cc1
Second: COc1ccccc1CCNC(=O)CNC(=O)c1ccc2ccccc2c1
The “hERG current change (%, negative = inhibition) at 10uM” value of the first is lower: -14.8% for the first, -9.21% for the second.

Going from `CCC(NC(=O)c1ccncc1)c1ccccc1` (centres unmarked) to `O=C(COc1ccccc1)Nc1ccncc1`, the “hERG current change (%, negative = inhibition) at 10uM” value rises from 16% to 21.9%.

Compared with `Cc1cc(C)n(C(C)CNS(=O)(=O)c2ccc(Cl)cc2)n1` (centres unmarked), `Cc1cc(=O)[nH]c(SCc2ccccc2)n1` is higher in “hERG current change (%, negative = inhibition) at 10uM” value: 15.1% for the first, 27% for the second.

Going from `CC(CC(=O)NC1CCCCC1)S(=O)(=O)c1ccc2c(c1)NC(=O)CO2` (centres unmarked) to `CCc1ccc(N(C(=O)c2csnn2)C(C(=O)NC2CCCC2)c2cccnc2)cc1` (centres unmarked), the “hERG current change (%, negative = inhibition) at 10uM” value falls from 5.72% to -24.9%.

Compared with `O=C(O/N=C1/CCCc2occc21)c1ccc(Cl)cc1Cl`, `COc1ccc(-c2cc(=O)oc3c(O)c(O)ccc23)cc1` is lower in “hERG current change (%, negative = inhibition) at 10uM” value: 11.7% for the first, 4.01% for the second.

First: C[n+]1cc(-c2ccccc2)n2c1CCCCC2.[I-]
Second: C[n+]1ccccc1/C=C/c1ccccc1Cl.[I-]
The “hERG current change (%, negative = inhibition) at 10uM” value of the first is lower: 4.03% for the first, 10.4% for the second.

Going from `COc1cc(OC)c(OC)cc1CNCCSc1nnnn1C.Cl` to `COc1cc(/C=C(\NC(=O)c2ccccc2)C(=O)NC(C(=O)O)c2ccccc2)cc(OC)c1OC` (centres unmarked), the “hERG current change (%, negative = inhibition) at 10uM” value falls from 18.8% to 0.146%.

Going from `CCN(CC)CCCNC(=S)N(CCCO)Cc1cc2cc3c(cc2[nH]c1=O)OCO3` to `CCN(CC)CCNC(=O)C(=O)Nc1cc2c3c(c1)CCC(=O)N3CCC2`, the “hERG current change (%, negative = inhibition) at 10uM” value rises from 17.8% to 20.6%.

Compared with `CCCC(=O)Nc1ccccc1Sc1ncnc2scc(-c3ccccc3)c12`, `Cc1ccccc1CS(=O)(=O)Cc1ccc(C(=O)NCCc2ccccc2)o1` is lower in “hERG current change (%, negative = inhibition) at 10uM” value: 1.51% for the first, -20.3% for the second.

Going from `CCOc1cccc(OCCNC2CCCC2)c1.O=C(O)C(=O)O` to `CCC(C)NC(=S)N1CCN(Cc2ccc3c(c2)OCO3)CC1.O=C(O)C(=O)O` (centres unmarked), the “hERG current change (%, negative = inhibition) at 10uM” value falls from 5.28% to -2.09%.

First: O=[N+]([O-])c1ccc(/C=[N+](\[O-])[C@@H]2CCCC[C@@H]2/[N+]([O-])=C/c2ccc([N+](=O)[O-])o2)o1
Second: CCC1CCCCN1C(=O)c1noc(C(C)C)c1[N+](=O)[O-] (centres unmarked)
The “hERG current change (%, negative = inhibition) at 10uM” value of the first is lower: -42.7% for the first, 8.5% for the second.

Going from `CCOC(=O)c1c(C)nsc1NC(=O)C1CCCCC1` to `CCOC(=O)N1CCN(C2=CC(=O)OC23CCCCC3)CC1`, the “hERG current change (%, negative = inhibition) at 10uM” value falls from 17.3% to 0.9%.

First: C/C=C/C(=O)OCC(=O)Nc1cc([N+](=O)[O-])ccc1Cl
Second: C/C=C(\C)C(=O)NCCN1C2=NC[C@H](C)N2C[C@@H]1Cc1ccc(OC)cc1
The “hERG current change (%, negative = inhibition) at 10uM” value of the first is lower: -16.3% for the first, -4.7% for the second.

First: CC(=O)[C@@H]1[C@@H]2C(=O)N(c3ccccc3F)C(=O)[C@@H]2[C@H]2c3ccccc3C=NN12
Second: CCc1ccccc1N(CC(=O)N1CCCC1)S(C)(=O)=O
The “hERG current change (%, negative = inhibition) at 10uM” value of the first is lower: -1.47% for the first, 13.8% for the second.
